# Measured values as given in the supplement of paper PMC3334620.
# The full ranking holds about 33,000 sequences; the median of “E-score (-0.5 to 0.5)” is about -0.035, and the highest 2% start at about 0.35. The list shows a part of the results.
# Target: T1, Pdr3 (UniProt P33200)
# T1 sequence: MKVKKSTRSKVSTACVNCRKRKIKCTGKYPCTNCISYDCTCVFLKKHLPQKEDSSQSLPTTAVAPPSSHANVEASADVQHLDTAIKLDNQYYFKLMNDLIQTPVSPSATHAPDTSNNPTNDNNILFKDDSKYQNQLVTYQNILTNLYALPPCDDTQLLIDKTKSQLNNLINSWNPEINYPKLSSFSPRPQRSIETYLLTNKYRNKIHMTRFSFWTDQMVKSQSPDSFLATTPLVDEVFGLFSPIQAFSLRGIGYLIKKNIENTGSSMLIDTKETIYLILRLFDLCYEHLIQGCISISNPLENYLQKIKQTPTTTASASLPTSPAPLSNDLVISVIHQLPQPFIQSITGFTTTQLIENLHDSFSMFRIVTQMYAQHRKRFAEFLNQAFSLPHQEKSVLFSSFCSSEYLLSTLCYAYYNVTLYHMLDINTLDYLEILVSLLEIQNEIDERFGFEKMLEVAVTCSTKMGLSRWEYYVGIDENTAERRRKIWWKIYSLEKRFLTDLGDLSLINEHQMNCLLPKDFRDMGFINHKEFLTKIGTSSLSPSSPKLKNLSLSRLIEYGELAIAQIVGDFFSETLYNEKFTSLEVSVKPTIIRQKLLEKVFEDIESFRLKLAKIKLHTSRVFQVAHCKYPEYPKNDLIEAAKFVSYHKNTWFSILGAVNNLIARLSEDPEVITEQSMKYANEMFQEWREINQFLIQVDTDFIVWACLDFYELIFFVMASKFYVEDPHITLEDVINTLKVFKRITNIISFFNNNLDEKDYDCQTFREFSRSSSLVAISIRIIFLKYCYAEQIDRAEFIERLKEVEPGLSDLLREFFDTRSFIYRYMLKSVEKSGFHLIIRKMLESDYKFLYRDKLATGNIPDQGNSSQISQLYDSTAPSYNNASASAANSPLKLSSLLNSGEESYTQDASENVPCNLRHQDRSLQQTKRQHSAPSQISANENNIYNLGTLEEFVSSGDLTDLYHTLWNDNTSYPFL
# Test: PBM E-score (8-mer binding enrichment) (E-score (-0.5 to 0.5)); higher = stronger / more preferred TF binding; most listed sequences are background and not binding sites
# Conditions: protein concentration: 200 nM; construct: GST-full length
# How it was run: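 E-scores (a modified Wilcoxon-Mann-Whitney statistic) were assigned by the Universal PBM Analysis Suite to every ungapped eight-base word pooled with its reverse complement. The input came from universal all-10-mer Agilent arrays made double-stranded by primer extension and probed with GST-tagged yeast transcription factors at about 100-200 nM. Fluorescent anti-GST detected bound protein, and masliner normalised the scans.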
row,Sequence,PBM E-score
1,AATACTTA,-0.0377
2,ACCTGGGA,-0.0488
3,CAGTTTAA,-0.226
4,CTCCTCAG,-0.224
5,GTCATCGA,-0.174
6,TCCGTCGA,0.39
7,TCGAAACA,0.0608
8,CTTCCAGC,-0.209
9,CTATAAGA,-0.0975
10,GCCCTTAC,-0.0109
11,ACCACCAG,-0.117
12,CAGGGGCC,-0.0384
13,ACTCGAGA,0.136
14,GCGGGCAC,0.216
15,AGAGGTCG,0.0531
16,AGCTTTTC,-0.0147
17,CTTGTAAC,0.0659
18,AGGTTACG,-0.084
19,CTCGAGTA,0.0611
20,TCCTGCGA,0.0321
21,ATGCTTTA,-0.199
22,GGCGCGCA,0.218
23,CGGAGGTA,0.214
24,CGCTGTGA,-0.0994
25,AGCCGGTA,0.199

row,Sequence,PBM E-score
1,CCCCCCAG,-0.372
2,GGCTTGAC,-0.0993
3,ACAATGAA,-0.0708
4,CGCGACGC,0.0669
5,TCAAGCGA,-0.0814
6,CCGGCGCA,0.321
7,CAAGACAC,0.0119
8,CGTACTCA,0.0823
9,GGGACAGA,0.00619
10,GATTACAA,-0.0153
11,ATTGGTCG,0.032
12,AGTGCAAT,-0.197
13,CCTCGCGC,-0.0155
14,ATACCTGA,0.0144
15,CTCATAAA,-0.00626
16,CCTAGACA,-0.339
17,CGATTTGC,0.0904
18,ATCTAGAG,-0.177
19,ATCTATGA,-0.106
20,AGGCCCCG,0.019
21,CAGGTGAC,-0.246
22,CGGTCCTC,0.0158
23,CGAAACTA,0.107
24,GGTCATGA,0.0794
25,ATGTGTAG,0.0654

row,Sequence,PBM E-score
1,CTCGTGTA,-0.109
2,GCGATCGC,0.144
3,GGAGGTAA,-0.0212
4,AGAGCTCA,-0.00784
5,ACCTCATA,-0.0284
6,AGCAAGAC,-0.134
7,CGGAGGAC,0.283
8,AACGGGTA,0.143
9,AAAAGTAG,-0.0943
10,CACCGACA,0.0198
11,AGAGTGAG,-0.163
12,ACTTGTCA,-0.0157
13,AGACGCGA,-0.0931
14,CTTGCGTA,-0.236
15,ACATCCCG,0.415
16,ACACGCCG,0.289
17,GTGCCCGA,-0.0135
18,AAGTACTG,-0.201
19,AAACACAA,-0.138
20,ACAGCATC,-0.0602
21,AATGAGGA,-0.177
22,CTTGCAAG,0.112
23,ATAGCGTA,-0.0208
24,ATATGTTA,-0.207
25,TACCCTGA,-0.251

row,Sequence,PBM E-score
1,CTGACGAC,-0.0802
2,ATGGGAAG,-0.0606
3,AACTTGTG,0.067
4,AGAATCTA,-0.115
5,CGTCCAAA,0.194
6,AAACGATA,-0.116
7,ATTTTAGG,-0.125
8,ATTAATTG,0.00256
9,ACGTTCCC,0.0163
10,CCAATAGC,-0.181
11,CTGGACAG,0.053
12,CACACCTC,0.0191
13,TCAAAGGA,-0.133
14,CGCAATGC,-0.0405
15,ACCACAGT,0.085
16,ATGTTATG,-0.00203
17,GAATCTAC,-0.0589
18,CTTAGTTC,0.064
19,ACCGTTCT,-0.0192
20,AAGACGGC,0.142
21,GAGTGCAA,0.0493
22,ATTGTAAC,-0.0193
23,CCAGGACG,-0.224
24,GCAGGTCC,0.0273
25,CCACGAAC,0.0802

row,Sequence,PBM E-score
1,ACATGACG,-0.0466
2,GTAGATAC,-0.175
3,CACCACTA,0.0244
4,CAGGACCC,-0.136
5,CGCAGTGA,0.0203
6,GACACGCA,-0.0604
7,ACTAAAAG,0.00579
8,GCTAGATA,0.0703
9,GCAGAAAC,-0.0854
10,AGATCGCG,0.16
11,AAGTTACG,-0.0907
12,CGAGAACC,0.0104
13,CCCCTAGG,-0.177
14,GAGAGCAC,0.0471
15,GACAGTAC,0.0759
16,TATAGTCA,-0.158
17,GTATGGTA,-0.0789
18,CCAGACTC,-0.205
19,AAGCTGAG,-0.044
20,CTAAGAGA,-0.316
21,CCCGTCGA,0.215
22,GATAAAAA,-0.0653
23,AAAGTGTC,0.0496
24,ACTATGGA,-0.195
25,AGACTTTG,-0.167

row,Sequence,PBM E-score
1,AGGGGGGG,-0.474
2,ACTGCTAG,-0.178
3,AATTTTGA,0.043
4,GATCAGTA,0.107
5,CCAAGGAA,-0.0128
6,CGAATGAA,0.0526
7,CTTTTGCC,0.108
8,GGACAGCA,0.166
9,GAGACCCC,-0.0304
10,ATTTCCTG,0.0852
11,ATATACTG,0.169
12,ATTTTTTC,0.0225
13,AGGCAAGC,-0.125
14,CCAAGTAG,-0.276
15,CCTGGTCG,-0.0152
16,CGAGATTC,0.173
17,CATGATAC,0.0347
18,CGTCCCTA,-0.0477
19,CTGGCTGC,-0.0301
20,CCAACTGA,-0.224
21,AAACATGT,0.00604
22,CGTCATAA,0.052
23,AAATCCAC,-0.147
24,GTTGCACA,-0.0842
25,CAAAATTA,0.0211

row,Sequence,PBM E-score
1,CCCCAAGG,-0.24
2,CTGCTTCA,-0.222
3,ACGGAATA,0.445
4,ACGCCGGA,0.289
5,CCCGTCGC,0.227
6,AAACACCC,0.18
7,ATTCACAG,-0.173
8,ATGAGAGG,-0.0403
9,AGCCCGTA,-0.276
10,ACGAAGAA,0.0764
11,AGAGCTTG,-0.158
12,GTACGATA,-0.287
13,AACGTTTA,-0.148
14,GCCACTCC,0.126
15,GATGCCGA,0.221
16,GGCGTGAC,-0.0861
17,GCTGGAGA,-0.164
18,AACATCCT,-0.0912
19,AGACGGCT,-0.0289
20,GCCGGGTA,0.175
21,ACACTTGC,-0.082
22,GTATAACA,-0.106
